# PMC4336329 (PLoS ONE, 2015)
# Screen size: about 310,000 compounds; about 14,000 (4.5%) showed an effect of 50% or more. The effect is printed as a negative number. The list shows a part of the results.
# Molecular target: human ether-à-go-go-related gene (hERG) potassium channel (human, UniProt Q12809)
# Test: primary screen, population patch clamp on CHO cells stably expressing hERG
# 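Further: peak tail current of the secondary pulse compared with the same well before compound.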
# Sequence of human ether-à-go-go-related gene (hERG) potassium channel (Q12809 whole entry, looked up): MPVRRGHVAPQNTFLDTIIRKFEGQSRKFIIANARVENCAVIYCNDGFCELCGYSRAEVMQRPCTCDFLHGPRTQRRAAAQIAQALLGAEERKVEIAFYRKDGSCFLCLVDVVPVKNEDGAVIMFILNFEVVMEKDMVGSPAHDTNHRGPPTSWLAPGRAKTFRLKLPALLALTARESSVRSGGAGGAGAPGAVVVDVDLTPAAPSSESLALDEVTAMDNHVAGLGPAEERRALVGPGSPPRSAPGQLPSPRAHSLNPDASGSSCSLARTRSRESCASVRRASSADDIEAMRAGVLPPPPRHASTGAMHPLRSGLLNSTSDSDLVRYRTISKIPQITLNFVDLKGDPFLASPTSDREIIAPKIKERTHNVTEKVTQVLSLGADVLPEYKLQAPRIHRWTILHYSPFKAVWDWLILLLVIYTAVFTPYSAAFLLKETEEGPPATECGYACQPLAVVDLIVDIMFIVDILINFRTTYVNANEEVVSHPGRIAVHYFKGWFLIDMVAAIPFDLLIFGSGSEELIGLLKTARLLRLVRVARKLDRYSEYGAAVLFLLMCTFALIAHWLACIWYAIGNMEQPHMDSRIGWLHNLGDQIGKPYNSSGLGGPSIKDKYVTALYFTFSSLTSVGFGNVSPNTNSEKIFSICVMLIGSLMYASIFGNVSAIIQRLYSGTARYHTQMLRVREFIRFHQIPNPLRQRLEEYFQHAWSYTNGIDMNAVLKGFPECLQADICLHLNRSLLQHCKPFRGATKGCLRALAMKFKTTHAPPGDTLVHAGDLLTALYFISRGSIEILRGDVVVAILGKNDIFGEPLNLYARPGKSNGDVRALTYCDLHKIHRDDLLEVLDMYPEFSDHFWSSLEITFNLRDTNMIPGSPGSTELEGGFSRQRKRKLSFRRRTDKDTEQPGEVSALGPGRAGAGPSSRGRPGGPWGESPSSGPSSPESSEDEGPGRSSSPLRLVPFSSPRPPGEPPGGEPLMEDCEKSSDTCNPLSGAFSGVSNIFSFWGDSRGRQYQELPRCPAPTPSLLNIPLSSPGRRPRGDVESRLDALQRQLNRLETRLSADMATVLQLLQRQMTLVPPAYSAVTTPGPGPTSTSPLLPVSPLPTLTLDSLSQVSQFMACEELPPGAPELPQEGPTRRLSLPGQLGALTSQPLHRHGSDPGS
row,SMILES,"hERG current change (%, negative = inhibition) at 10uM"
1,COc1cccc(N2CCN(C(=O)CN(c3cc(C)cc(C)c3)S(=O)(=O)c3c(C)noc3C)CC2)c1,-0.0706%
2,Cc1cc(S(=O)(=O)Nc2ccc(C(=O)N3CCN(c4ccccc4O)CC3)cc2)ccc1F,-5.37%
3,O=C(Nc1ccccc1)N(Cc1ccccc1)Cc1ccccc1,-12.4%
4,CCNc1c(NCC)c(=O)c1=O,15.2%
5,Cc1nnc(SCC(=O)NC2CCCC2)n1-c1ccccc1,1.21%
6,CC(C)N1CCC(N2CCN(Cc3cnc(-c4ccccc4)s3)CC2CCO)CC1 (stereo not drawn),-15.6%
7,CC(C)CNC(=S)N(Cc1ccco1)Cc1cc2cc3c(cc2[nH]c1=O)OCCO3,3.92%
8,Cc1ccc(S(=O)(=O)Cc2ccccc2Cl)cc1,-23.5%
9,O=C(/C=C/c1cccc([N+](=O)[O-])c1)OCC(=O)N1CCOCC1,8.64%
10,NC(=O)c1cn(-c2ccccc2)nc1-c1cccnc1,-1.67%
11,CCc1cc(/C(Cc2ccccn2)=N\O)c(O)cc1O,2.46%
12,CC(OC(=O)c1nsc(Cl)c1Cl)C(=O)NCc1ccco1 (stereo not drawn),14%
13,Cc1ccc(SC(C)C(=O)NCCC2=CCCCC2)cc1 (stereo not drawn),-26.9%
14,COc1ccc2nc(Cl)c(C3CC(c4ccco4)=NN3C(=O)CCCC(=O)O)cc2c1 (stereo not drawn),7.6%
15,O=C(CSc1nc2ccccc2o1)N1CCN(c2ccccc2)CC1,17.2%
16,CCOP(=O)(c1ccccc1Cl)C1(O)CCCCC1 (stereo not drawn),-3.31%
17,Cc1cc(N/N=C/c2ccc(O)cc2)c2cccc(C)c2n1,-51.6%
18,CC(=O)N(C)Cc1ccc(C(=O)CSc2nnc(C3CC3)n2C2CC2)cc1,-8%
19,N#CC1(NC(=O)COC(=O)/C=C/c2ccc3ccccc3n2)CCCCC1,14.7%
20,COc1ccc(OC)c(NC(=O)CSc2nc3ccccc3c(=O)n2CC2CCCO2)c1 (stereo not drawn),-41.2%
21,COc1ccccc1NC(=O)c1ccc(Br)o1,-6.16%
22,Cc1c(C(=O)NCCN2CCOC2=O)oc2c(F)cccc12,11.8%
23,COc1cc(C(C[N+](=O)[O-])c2c(N)n(C)c(=O)n(C)c2=O)ccc1O (stereo not drawn),8.05%

row,SMILES,"hERG current change (%, negative = inhibition) at 10uM"
1,Cc1ccccc1NS(=O)(=O)c1cc(C(=O)N2CCCC2)ccc1Cl,1.08%
2,CN(C)C1(CNC(=S)Nc2ccccc2C(F)(F)F)CCCCC1,-19.2%
3,Cc1cc(CNCc2cn(C)nc2-c2ccc(Oc3ccccc3)cc2)on1,-14%
4,CCn1cc(SCC(=O)N2CCc3ccccc32)c2ccccc21,-1.74%
5,COc1ccc(/C=C2\SC(=S)N(CC(=O)OCC(=O)Nc3cc(Cl)cc(Cl)c3)C2=O)cc1,2.69%
6,CCOc1ccc(N2C(=O)c3ccccc3NC2(C)CC)cc1 (stereo not drawn),4.89%
7,COC(=O)c1ccccc1NC(=O)CSc1nnnn1-c1ccc(C)cc1C,10.3%
8,O=C(COc1ccc(/C=C2/NC(=O)NC2=O)cc1)Nc1ccc(F)cc1,22.6%
9,O=C(CN1CCN(Cc2ccccc2)CC1)N/N=C\C=C/c1ccco1,-26.9%
10,COc1ccc(C2=NN(CN3C(=O)C(=O)c4ccccc43)C(c3cccc([N+](=O)[O-])c3)C2)cc1 (stereo not drawn),5.67%
11,Nc1nc2ccccc2n1/N=C/c1cccnc1,2.44%
12,CC1=C(C(=O)Nc2ccccn2)C(c2ccc(Cl)cc2Cl)NC(=S)N1 (stereo not drawn),-3.69%
13,COc1ccc2cc(C(C)C(=O)OC(C)C)ccc2c1 (stereo not drawn),5%
14,CC(C)[C@H](NC(=O)c1ccccc1)C(=O)OCC(=O)Nc1ccc2c(c1)OCCO2,-0.724%
15,CS(=O)(=O)c1ccc2nc(NC(=O)c3ccc(NS(=O)(=O)c4ccc(F)c(F)c4)cc3)sc2c1,16%
16,Cc1noc(C)c1-c1nc(CS(=O)(=O)c2ccc(F)cc2)no1,8.83%
17,CCOc1ccccc1C(=O)N1CCC(n2nnc3cc(C(F)(F)F)ccc32)CC1,-60%
18,Cc1ccc(S(=O)(=O)NCC(=O)OC(C(=O)c2ccccc2)c2ccccc2)cc1 (stereo not drawn),3.13%
19,S=C(NCc1ccccc1)Nc1cccc(Cl)c1,-14.6%
20,COc1ccc(NC2CCN(C3CC(=O)N(c4ccc(F)c(Cl)c4)C3=O)CC2)cc1 (stereo not drawn),-54.8%
21,COc1cccc(N2CCN(C(=O)C3CCN(S(=O)(=O)c4cccs4)CC3)CC2)c1,-7.28%
22,CN(C)CCN(C(=O)CCS(=O)(=O)c1ccccc1)c1nc2cc3c(cc2s1)OCO3.Cl,7.43%
23,c1ccc(-c2nnc(-c3ccco3)o2)cc1,0.407%

row,SMILES,"hERG current change (%, negative = inhibition) at 10uM"
1,CC(O)CNc1nc2ccccc2n1CC(=O)NCCc1ccc(Cl)cc1 (stereo not drawn),-11.8%
2,CCN(CC(=O)NCc1ccc(Cl)cc1)C(=O)CSCC(=O)Nc1ccc(C)cc1,-77.9%
3,O=C1C=C(c2cccc(CO)c2)C[C@@H](c2ccc(F)cc2)C1,-45.3%
4,N#C/C(=C/c1ccc(C(=O)O)cc1)C(=O)NCc1ccccc1,-6.97%
5,O=C(Oc1cccc(C(=S)N2CCCCC2)c1)c1ccccc1,19.1%
6,CCN(CC)CCn1c2ccccc2c2n[nH]c(=S)nc21,-4.86%
7,CC1=C(C#N)C(c2cccnc2)C2=C(N1)c1ccccc1C2=O (stereo not drawn),-4.63%
8,NS(=O)(=O)c1cccc(-n2cnnn2)c1,-6.93%
9,Cn1c(-c2ccc(C(C)(C)C)cc2)n[nH]c1=S,19.2%
10,Cc1cccc(/C=N/NC(=O)c2cccc([N+](=O)[O-])c2)n1,-1.15%
11,Nc1nc(SCc2nnc(SCC(=O)O)n2-c2ccccc2)nc2sc3c(c12)CCCC3,-2.11%
12,CCOc1cccc(N2C(=O)CC(n3cnc4ccccc43)C2=O)c1 (stereo not drawn),8.48%
13,COc1ccc(CCNC(=O)CCC(=O)Nc2nnc(C(C)C)s2)cc1OC,10.4%
14,Cc1cccc(C(=O)Nc2ccc(O)c3c(=O)cc(-c4ccccc4Cl)oc23)c1,0.883%
15,Cc1ccccc1Nc1nc(N)nc(COC(=O)c2ccccc2)n1,16.1%
16,COCCNC(=O)C1CC(c2ccc(C(F)(F)F)cc2)=NO1 (stereo not drawn),1.35%
17,NC(=S)Nc1ccc2cn[nH]c2c1,1.7%
18,Cc1ccc(S(=O)(=O)Nc2nc(C)c(C)s2)cc1,1.65%
19,COc1ccc(S(=O)(=O)Nc2ccc3ccccc3c2)cc1C,-8.79%
20,Fc1ccccc1CSc1nnc(-c2cccs2)o1,-9.96%
21,COc1ccc(CCNS(=O)(=O)c2ccc3c(c2)CCN3C(=O)C2CC2)cc1OC,0.919%
22,N#Cc1nc(-c2ccco2)oc1NCc1cccnc1,-10.3%
23,Cn1nccc1C(=O)N1CCN(S(=O)(=O)c2ccc(Br)s2)CC1,0.853%

row,SMILES,"hERG current change (%, negative = inhibition) at 10uM"
1,C=C(C)C(=O)Nc1ccc(OC(F)(F)C(F)F)c(NC(=O)C(=C)C)c1,3.49%
2,CCOCCSc1n[nH]c(=O)n1CCc1ccccc1,11.1%
3,COc1ccc(C)cc1NC(=O)CN1CCN(c2ccccc2F)CC1,-10.3%
4,O=[N+]([O-])c1cccc2ccc(N3CCOCC3)nc12,7.51%
5,COC(=O)C1=C(N)Oc2cc(C)oc(=O)c2C1c1cccnc1 (stereo not drawn),-16.1%
6,CC(OC(=O)c1nn(C)c(=O)c2ccccc12)C(=O)NC1CCCCC1C (stereo not drawn),-3.75%
7,CCn1nc(C)cc1C(=O)N1CCc2c([nH]c3ccccc23)C1c1cc(F)ccc1F (stereo not drawn),-1.16%
8,COC(=O)c1cc(CC(=O)c2ccc(O)cc2O)c(C)o1,8.21%
9,Cc1ncoc1C(=O)N1CCCC(C(=O)c2cccc3ccccc23)C1 (stereo not drawn),5.95%
10,Cc1nc(NCCCO)c(C#N)c2c1COC(C)(C)C2,-15%
11,Cc1cc(NC(=O)C(C)SCC(=O)Nc2nc3c(F)cc(F)cc3s2)no1 (stereo not drawn),14.2%
12,O=C(CS(=O)CC(=O)Nc1cccc2c1CCCC2)Nc1ccc(F)cc1 (stereo not drawn),16.6%
13,COc1ccc2nc(NC(=O)c3ccco3)sc2c1,2.66%
14,CCOc1ccc(N(Cc2ccc(OC)cc2)C(=O)c2ccco2)cc1,-35.9%
15,Cc1ccc(C(C(=O)NC2CCCCC2)N2CCOCC2)cc1 (stereo not drawn),1.7%
16,CC(N=Cc1cccc(O)c1O)c1ccccc1 (stereo not drawn),-4.41%
17,S=c1[nH]nc(-c2ccco2)n1/N=C/c1c(Cl)cccc1Cl,-10.9%
18,CN(CC(=O)Nc1cccc2c1CCCC2)S(=O)(=O)c1ccc(Br)cc1,2.3%
19,O=c1c2ccc(Cl)cc2[nH]c(=S)n1-c1cccnc1,20.7%
20,Cc1c(CCO)sc[n+]1CC(=O)OCCC12CC3CC(CC(C3)C1)C2.[Cl-],11.8%
21,COc1ccc(N2CCN(C(=O)c3oc4ccccc4c3NC(=O)Cc3ccc(OC)c(OC)c3)CC2)cc1,-28.7%
